We go through 43 molecules from publication PMC4336329 (PLoS ONE, 2015).

Among all 310,000 compounds or so, about 14,000 (4.5%) showed an effect of 50% or more. Effects have a minus sign here. The list shows a part of the results.
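Further: peak tail current of the secondary pulse compared with the same well before compound.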

The test deals with human ether-à-go-go-related gene (hERG) potassium channel (human, UniProt Q12809). The experiment in a line: primary screen, population patch clamp on CHO cells stably expressing hERG.
Sequence of human ether-à-go-go-related gene (hERG) potassium channel (Q12809 whole entry, looked up): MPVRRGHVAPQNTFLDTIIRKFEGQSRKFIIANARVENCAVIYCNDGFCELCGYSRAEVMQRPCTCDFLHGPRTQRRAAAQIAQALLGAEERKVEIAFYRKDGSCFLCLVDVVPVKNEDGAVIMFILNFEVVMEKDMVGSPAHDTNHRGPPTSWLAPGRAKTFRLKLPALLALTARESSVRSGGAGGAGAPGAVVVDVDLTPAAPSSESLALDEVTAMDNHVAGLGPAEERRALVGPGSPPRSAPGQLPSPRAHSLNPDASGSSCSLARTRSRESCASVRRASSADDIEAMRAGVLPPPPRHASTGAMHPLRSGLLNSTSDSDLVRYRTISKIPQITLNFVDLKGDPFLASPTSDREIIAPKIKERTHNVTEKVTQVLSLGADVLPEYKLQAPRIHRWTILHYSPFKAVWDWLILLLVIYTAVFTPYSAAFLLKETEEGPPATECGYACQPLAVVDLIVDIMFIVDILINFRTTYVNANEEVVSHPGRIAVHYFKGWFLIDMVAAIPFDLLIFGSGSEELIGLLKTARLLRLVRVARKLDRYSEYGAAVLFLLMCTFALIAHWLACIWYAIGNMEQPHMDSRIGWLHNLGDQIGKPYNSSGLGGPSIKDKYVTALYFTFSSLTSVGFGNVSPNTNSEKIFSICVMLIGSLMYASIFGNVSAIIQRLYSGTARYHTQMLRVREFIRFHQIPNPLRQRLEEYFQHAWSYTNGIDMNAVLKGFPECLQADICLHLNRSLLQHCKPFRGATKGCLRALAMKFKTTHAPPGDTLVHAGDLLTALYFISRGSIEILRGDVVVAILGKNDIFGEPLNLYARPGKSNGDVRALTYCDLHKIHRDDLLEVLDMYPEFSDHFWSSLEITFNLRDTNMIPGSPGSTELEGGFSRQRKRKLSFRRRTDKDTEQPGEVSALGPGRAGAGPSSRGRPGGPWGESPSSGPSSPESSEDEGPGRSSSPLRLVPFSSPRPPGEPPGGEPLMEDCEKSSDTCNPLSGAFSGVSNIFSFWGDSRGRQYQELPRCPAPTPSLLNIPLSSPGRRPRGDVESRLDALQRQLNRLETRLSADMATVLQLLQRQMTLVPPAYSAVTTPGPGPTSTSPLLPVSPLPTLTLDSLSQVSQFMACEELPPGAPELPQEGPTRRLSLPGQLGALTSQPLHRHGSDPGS
As for `O=C(Nc1ccc(Cl)cn1)C1CCN(c2ncnc3c2nc2n3CCCCC2)CC1`, the “hERG current change (%, negative = inhibition) at 10uM” value is given as -38.8%.

With `COc1ccc(S(=O)(=O)N2CCN(CC(=O)Nc3cc(C(F)(F)F)ccc3Cl)CC2)cc1`, the “hERG current change (%, negative = inhibition) at 10uM” value is -4.6%.

For the molecule `Cc1ccc([N+](=O)[O-])cc1N`, the “hERG current change (%, negative = inhibition) at 10uM” value was determined as 37.4%.

`CCOc1ccccc1NC(=O)CCS(=O)(=O)c1cccc2nonc12`: the “hERG current change (%, negative = inhibition) at 10uM” value was found to be 0.103%.

Take `CCOC(=O)c1cnc(SC)nc1Oc1cccc(NS(=O)(=O)c2ccc(F)cc2)c1`: the “hERG current change (%, negative = inhibition) at 10uM” value is -71.2%.

For `CC(C(=O)N1CCN(C(=O)c2ccco2)CC1)n1sc2ccccc2c1=O` (stereo not shown), the “hERG current change (%, negative = inhibition) at 10uM” value is given as -25.1%.

On to `CCc1ccc(/C=N\NC(=O)c2ccc(Br)o2)s1`, for which the “hERG current change (%, negative = inhibition) at 10uM” value is -9.41%.

Consider `O=C(Cn1c(=O)oc2ccccc21)Nc1nc(-c2ccc(Br)cc2)cs1`, for which the “hERG current change (%, negative = inhibition) at 10uM” value is recorded as -5.92%.

For the molecule `O=C(NCc1ccncc1)/C(=C\c1ccc(F)cc1)NC(=O)c1ccccc1`, the “hERG current change (%, negative = inhibition) at 10uM” value is on record as -70.9%.

In the case of `COC(=O)c1ccc(OCCCCN2CC(C)OC(C)C2)cc1.O=C(O)C(=O)O` (stereo not shown), the “hERG current change (%, negative = inhibition) at 10uM” value is -20%.

Regarding `Cc1ccc(C)c2[nH]c(=O)c(CN(Cc3ccco3)C(=S)NCC3CCCO3)cc12` (stereo not shown), the “hERG current change (%, negative = inhibition) at 10uM” value is listed as -16.5%.

For `O=S(=O)(/N=C(/Nc1cccc2ccccc12)c1ccccc1)c1cccs1`, the “hERG current change (%, negative = inhibition) at 10uM” value is reported as 5.15%.

For `CCOC(=O)C1(Cc2ccccc2)CCN(Cc2ccon2)CC1`, the “hERG current change (%, negative = inhibition) at 10uM” value is 0.71%.

For the molecule `CCCNC(=O)/C(=C/c1cn(S(=O)(=O)N(C)C)c2ccccc12)NC(=O)c1ccc(OC)cc1`, the “hERG current change (%, negative = inhibition) at 10uM” value was -17.9%.

Regarding `O=C(N/N=C\c1ccc(-c2ccccc2[N+](=O)[O-])o1)C1COc2cc3ccccc3cc2O1` (stereo not shown), the “hERG current change (%, negative = inhibition) at 10uM” value is on record as -2.2%.

As to `Cc1cc(-c2ccccc2)nc(N/N=C/c2ccc(N(C)C)cc2)n1`, the “hERG current change (%, negative = inhibition) at 10uM” value is -2.14%.

`O=C1OC2(CCCCC2)OC(=O)C1=CNc1nccs1`: the “hERG current change (%, negative = inhibition) at 10uM” value turned out to be 3.3%.

In the case of `Cn1cnnc1SCC(=O)N1CCC(Cc2ccccc2)CC1`, the “hERG current change (%, negative = inhibition) at 10uM” value is -9.68%.

On to `CCCCCCNc1nc(-c2ccc(OC)cc2)c(CCC(=O)O)s1`, for which the “hERG current change (%, negative = inhibition) at 10uM” value was determined as 7.44%.

Regarding `Nc1nonc1C(=O)OCC(=O)c1ccc(Cl)cc1`, the “hERG current change (%, negative = inhibition) at 10uM” value turned out to be 4.6%.

On to `COc1cccc(-c2nn(-c3ccc(F)cc3)cc2C(=O)NCC2CCCO2)c1` (stereo not shown), for which the “hERG current change (%, negative = inhibition) at 10uM” value is -49.7%.

As for `Cc1ccc(-n2c3c(c(=O)[nH]c2=O)C(C(F)(F)F)(C(F)(F)F)NC(=O)N3)cc1`, the “hERG current change (%, negative = inhibition) at 10uM” value is given as 22.2%.

Take `CC(=O)NC(Cc1ccccc1)c1ccc2c(c1)OCCCO2` (stereo not shown): the “hERG current change (%, negative = inhibition) at 10uM” value came to 5.44%.

In the case of `N#CC1=C(N)Oc2cc3c(cc2C1c1ccc(Cl)cc1)OCO3` (stereo not shown), the “hERG current change (%, negative = inhibition) at 10uM” value turned out to be 9.53%.

Regarding `COc1ccc(Br)cc1S(=O)(=O)N1CCCC1`, the “hERG current change (%, negative = inhibition) at 10uM” value was -8.85%.

Consider `O=C(Cn1cc([N+](=O)[O-])cn1)Nc1ccn(Cc2c(F)c(F)c(F)c(F)c2F)n1`, for which the “hERG current change (%, negative = inhibition) at 10uM” value is given as -35.7%.

For `CCNC(=O)COC(=O)c1ccc(NS(=O)(=O)c2ccc3c(c2)OCCO3)cc1`, the “hERG current change (%, negative = inhibition) at 10uM” value was found to be 14.9%.

Regarding `CC(=O)C1C(c2ccc(Br)cc2)c2c(noc2C)CC1(C)O` (stereo not shown), the “hERG current change (%, negative = inhibition) at 10uM” value is recorded as -0.615%.

In the case of `O=S(=O)(NCc1ccccc1Br)c1ccccc1Br`, the “hERG current change (%, negative = inhibition) at 10uM” value was -14.7%.

In the case of `O=C(COC(=O)COc1ccccc1[N+](=O)[O-])Nc1ccc(S(=O)(=O)N2CCCCC2)cc1`, the “hERG current change (%, negative = inhibition) at 10uM” value turned out to be 3.61%.

For the molecule `CC(=O)c1cccc(NC(=O)N2CCCC(C(=O)c3cc(F)ccc3F)C2)c1` (stereo not shown), the “hERG current change (%, negative = inhibition) at 10uM” value was -1.41%.

As to `O=C1C2=C(SCCS2)C(=O)N1c1ccccc1`, the “hERG current change (%, negative = inhibition) at 10uM” value is given as 19.3%.

On to `CC(=O)c1cccc(Nc2nc(-c3sc(C)nc3C)cs2)c1`, for which the “hERG current change (%, negative = inhibition) at 10uM” value is 8.4%.

Regarding `COc1ccc(/C=C/C(=O)c2ccoc2)cc1`, the “hERG current change (%, negative = inhibition) at 10uM” value is on record as -0.919%.

As to `O=C1C=C(c2cc3ccccc3s2)C[C@@H](c2ccc(F)cc2)C1`, the “hERG current change (%, negative = inhibition) at 10uM” value stood at 5.01%.

`Cc1cc(C)nc(N2CCN(S(=O)(=O)c3ccc(F)cc3)CC2)n1`: the “hERG current change (%, negative = inhibition) at 10uM” value worked out at 10.1%.

As to `COc1ccc(C2SCC(=O)Nc3c2c(=O)[nH]n3C2CCCCC2)cc1` (stereo not shown), the “hERG current change (%, negative = inhibition) at 10uM” value came to 5.34%.

On to `O=C(CSc1nnc2ccccn12)Nc1ccc2c(c1)OCO2`, for which the “hERG current change (%, negative = inhibition) at 10uM” value worked out at 5.35%.

On to `COc1ccccc1NC(=O)Nc1ccnn1C1CCN(C(=O)c2cccnc2)CC1`, for which the “hERG current change (%, negative = inhibition) at 10uM” value was 4.81%.

As for `Cc1ccc(C(=O)Nc2ccc(Oc3cccc(C(F)(F)F)c3)nc2)cc1`, the “hERG current change (%, negative = inhibition) at 10uM” value is on record as 10.1%.

Turning to `COc1ccc2c(c1)-c1nc(NC(=O)c3ccco3)sc1CC2`, the “hERG current change (%, negative = inhibition) at 10uM” value was found to be 7.14%.

As to `O=C(OC(C(=O)NCc1cccs1)c1ccccn1)c1cccs1` (stereo not shown), the “hERG current change (%, negative = inhibition) at 10uM” value was -11.5%.

For the molecule `COC(=O)c1ccc(C(=O)OC)c(=O)[nH]1`, the “hERG current change (%, negative = inhibition) at 10uM” value came out at 4.11%.
